The other results are listed elsewhere or left out. Shown are side measurements of this screen, not its main read-out; they come without a call.
Legend:
Assay in all cases: Primary Screen for Target Class Profiling of Small Molecule Inhibitors of Methyltransferases
[1] = target: Glycine N-methyltransferase (Homo sapiens) (UniProt Q14749); conditions: purified enzyme, MTase-Glo SAH luminescence; measured here: GNMT inhibition; at 40 µM; stronger effect = lower value
Summary of the method: (§1)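 Each enzyme was assayed with SAM and its substrate. SAH formation detected by MTase-Glo luminescence; single-point 40 uM screen[…].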

[2] = target: Guanidinoacetate N-methyltransferase (Homo sapiens) (UniProt Q14353); conditions: purified enzyme, MTase-Glo SAH luminescence; measured here: GAMT inhibition; at 40 µM; stronger effect = lower value
Summary of the method: as §1

[3] = target: Histamine N-methyltransferase (Homo sapiens) (UniProt P50135); conditions: purified enzyme, MTase-Glo SAH luminescence; measured here: HNMT inhibition; at 40 µM; stronger effect = lower value
Summary of the method: as §1

[4] = target: Nicotinamide N-methyltransferase (Homo sapiens) (UniProt P40261); conditions: purified enzyme, MTase-Glo SAH luminescence; measured here: NNMT inhibition; at 40 µM; stronger effect = lower value
Summary of the method: as §1

[5] = target: Phenylethanolamine N-methyltransferase (Homo sapiens) (UniProt P11086); conditions: purified enzyme, MTase-Glo SAH luminescence; measured here: PNMT inhibition; at 40 µM; stronger effect = lower value
Summary of the method: as §1
% is set by controls: 0 for no effect and ±100 for the full control effect.

Row | SMILES | activity change, negative = inhibition [1] [%] | activity change, negative = inhibition [2] [%] | activity change, negative = inhibition [3] [%] | activity change, negative = inhibition [4] [%] | activity change, negative = inhibition [5] [%]
1 | Cc1cccc(OCCc2noc(C3CCCN3)n2)c1 (stereo not drawn) | -5.11 | -4.02 | -5.76 | -11 | -2.62
2 | CC(C)CCNC(=O)C1(C)Cn2nc(C(=O)NCCc3ccc(Cl)cc3)cc2C(=O)N1C (stereo not drawn) | -3.34 | 0.563 | 2.36 | -1.66 | -2.43
3 | CCOC(=O)c1cc2n(n1)CC(C)(C(=O)NCCC(C)C)N(Cc1ccc(OC(C)C)cc1)C2=O (stereo not drawn) | 3.93 | 0 | 7.9 | 10.5 | 2.53
4 | CC(C)(C)CC(C)(C)c1ccc(OCCOCC[N+](C)(C)Cc2ccccc2)cc1 | -8.71 | 7.12 | -49.7 | -65.7 | -6.47
5 | C[C@@H](c1ccccc1)N1C(=O)[C@@H]2CN(C(=O)CC3(CC(=O)O)CCCC3)CCN2C1=O | -6.23 | -4.55 | -1.8 | -12.4 | -5.06
6 | COc1ccc(CCC(=O)c2c(O)cc(O[C@@H]3O[C@H](CO)[C@@H](O)[C@H](O)[C@H]3O[C@@H]3O[C@@H](C)[C@H](O)[C@@H](O)[C@H]3O)cc2O)cc1O | 0.78 | 8.1 | 5.21 | -8.25 | -2.49
7 | O=C(c1ccco1)N1CCCC1c1nc(C2CCOCC2)no1 (stereo not drawn) | -4.81 | -7.2 | -2.7 | -8.34 | -6.12
8 | Cc1cccc(N2CCN(S(=O)(=O)c3cc4c(cc3Br)n(C)c(=O)n4C)CC2)c1C | -4.42 | 4.89 | 0.341 | 0.285 | -1.92
9 | Nc1nc(NCC2CCC(CNS(=O)(=O)c3cccc4ccccc34)CC2)nc2ccccc12 (stereo not drawn) | -9.8 | -18.2 | -61.9 | -51.8 | -33
10 | CC(=O)Nc1ccc(Cl)c(C(=O)N(C)Cc2sccc2C)c1 | -8.29 | -8.76 | -5.44 | -19.1 | -18.1
11 | CC1CCN(S(=O)(=O)c2ccc3c(ccn3CC(=O)NC3CCCCC3)c2)CC1 | 4.9 | 5.6 | 5.95 | 5.46 | 4.12
12 | O=C1C[C@]23C=CCN4CCC5c6cc7c(cc6N1[C@@]5(CC2)C43)OCO7 (stereo partly drawn) | -0.636 | -6.55 | 7.75 | -41.5 | -7.95
13 | CCC(C)NC(=O)c1ccc2c(=O)n(C)c3nn(Cc4cc(C)ccc4C)c(=O)n3c2c1 (stereo not drawn) | 3.72 | 5.68 | 5.77 | -5.43 | 0.934
14 | Cc1cccc(N2C(=O)c3ccccc3CC2(C)C(=O)NCc2ccccc2)c1 (stereo not drawn) | -2.33 | 8.24 | -5.3 | -4.87 | -2.69
15 | O=C1NC(Cc2c[nH]c3ccccc23)C(=O)NC1Cc1c[nH]c2ccccc12 (stereo not drawn) | 0 | 5.17 | 5.83 | -9.92 | 6.94
16 | OC[C@@]1(O)CO[C@@H](OC[C@H]2O[C@@H](Oc3c[nH]c4ccccc34)[C@H](O)[C@@H](O)[C@@H]2O)[C@@H]1O | -2.07 | -19.7 | 4.84 | -36.4 | -13.1
17 | COC(=O)c1cc2n(n1)CC(C)(C(=O)NC1CCCCCC1)N(c1ccc(C(C)C)cc1)C2=O (stereo not drawn) | -3.33 | -0.523 | -3.4 | -2.63 | 0.077
18 | O=C(Cn1ccc2cc(S(=O)(=O)N3CCCCC3)ccc21)NCCc1ccc(Cl)cc1 | 1.24 | 2.38 | 2.58 | -7.5 | -1.31
19 | COc1ccc(C(=O)N[C@@H]2CCC[C@@H]2C(=O)N2CCSCC2)cc1 | -0.922 | 5.7 | 3.43 | -0.939 | 14.1
20 | CCC(C)NC(=O)Cn1nc2n(C3CC3)c(=O)c3ccc(C(=O)NC(C)CC)cc3n2c1=O (stereo not drawn) | 9.89 | 0 | 1.77 | 10.4 | 11.4

Row | SMILES | activity change, negative = inhibition [1] [%] | activity change, negative = inhibition [2] [%] | activity change, negative = inhibition [3] [%] | activity change, negative = inhibition [4] [%] | activity change, negative = inhibition [5] [%]
21 | CN1CCN(c2nc3c(c(=O)[nH]2)CCN(Cc2ccc4[nH]ccc4c2)CC3)CC1 | -13.6 | -6.43 | -7.77 | -15.4 | -16.2
22 | COCCOC1CCN(C(=O)NCc2ccc(C)cc2)CC1 | -1.37 | -7.48 | -0.84 | -6.51 | -2.86
23 | COc1ccc(-c2cc3nccn3c(Nc3ncccc3C(N)=O)n2)cc1OC | -4.5 | -0.496 | 7.1 | -19.5 | 4.33
24 | CCOC(=O)c1cc2n(n1)CC(C)(C(=O)NCc1ccccc1)N(Cc1cccc(OC)c1OC)C2=O (stereo not drawn) | -1.32 | 3.33 | 5.6 | -2.09 | -1.97
25 | Cc1nn(-c2ccccc2)c2c1C(C1CC1)N(C1CCN([S+](=O)([O-])c3ccccc3)C1)C2=O (stereo not drawn) | -9.53 | -10.6 | -8.26 | -13.4 | -5.12
26 | Cc1ccc(NC(=O)N2Cc3c(sc4c3CCCC4)-n3cccc3C2c2ccccc2)cc1F (stereo not drawn) | -2.75 | 0 | -0.122 | 6.05 | 5.33
27 | COc1ccc(CCC(=O)Nc2nc3ccc(Cl)cc3s2)cc1OC | -19.9 | 0.268 | 9.88 | -15.5 | 3.8
28 | COc1ccc(CCn2nnnc2C2(c3ccc(C)cc3)CC2)cc1 | 1.46 | 14.7 | 11.1 | -11.2 | 0.176
29 | CNC(=O)NCCc1ncc(C)n1C1CCCCCCC1 | -0.488 | -1.59 | -57 | -3.51 | 0.4
30 | O=C(NCc1ccccn1)c1ccc2c(=O)nc3c(-c4ccc(F)cc4)n[nH]n3c2c1 | -15.3 | 0 | 1.67 | 3.11 | -2.85
31 | Cc1ccc(OCC(=O)N2CCCC(CN3CCCC3)CC2)cc1 (stereo not drawn) | -9.22 | -2.91 | -25.7 | -5.04 | -11.5
32 | C=C1C(=O)O[C@H]2[C@H]1CC/C(C)=C/CC[C@@]1(C)O[C@@H]21 | -3.5 | -16.4 | -5.47 | -21.5 | -6.22
33 | CCOC(=O)C1CCCN(c2nc3c(S(=O)(=O)c4ccc(C(C)C)cc4)nnn3c3ccccc23)C1 (stereo not drawn) | -18.9 | 0 | 8.8 | -4 | -0.547
34 | CC(C)n1c(=O)c2ccc(C(=O)NC3CCCCC3)cc2n2c(=O)n(Cc3cccc(Cl)c3)nc12 | 4.45 | 0 | 9.1 | 7.27 | 6.37
35 | CN(C)C(=O)N1CCCC(C(=O)NCCc2nc(-c3ccccn3)no2)C1 (stereo not drawn) | 2.79 | -3.25 | -0.534 | -0.402 | -3.82
36 | CC1(C(=O)NC2CCCCCCC2)Cn2c(cc3sccc32)C(=O)N1Cc1ccc2c(c1)OCO2 (stereo not drawn) | -4.06 | 4.66 | -2.1 | -3.49 | 1.16
37 | CCOC(=O)c1cc2n(n1)CC(C)(C(=O)NCc1ccc(F)cc1)N(c1cccc(CC)c1)C2=O (stereo not drawn) | 1.57 | 2.31 | 8.66 | 2.22 | 1.22
38 | CCOC(=O)c1cc2n(n1)CC(C)(C(=O)NC1CCCCCC1)N(c1ccc(C)c(Cl)c1)C2=O (stereo not drawn) | 2.5 | 3.99 | 2.04 | 0.725 | 4.79
39 | CC1(C(=O)NCc2ccccc2)Cn2nc(-c3ccccc3)cc2C(=O)N1c1ccc2c(c1)OCO2 (stereo not drawn) | -0.056 | 3.41 | -1.51 | -3.12 | -1.26
40 | CCOc1ccc(CCNC(=O)CCc2nnc3n(CC(C)C)c(=O)c4ccccc4n23)cc1 | -3.42 | 3.74 | 1.21 | -3.77 | -2.39

Row | SMILES | activity change, negative = inhibition [1] [%] | activity change, negative = inhibition [2] [%] | activity change, negative = inhibition [3] [%] | activity change, negative = inhibition [4] [%] | activity change, negative = inhibition [5] [%]
41 | Cc1ccc(N2C(=O)c3cc(-c4cccs4)nn3CC2(C)C(=O)NC2CCCCC2)cc1 (stereo not drawn) | 4.99 | 7.33 | 9.77 | 11.6 | 4.28
42 | C[C@]12CC[C@@H]3c4ccc(O)c(O)c4CC[C@H]3[C@@H]1CCC2=O | -14 | -17.5 | -3.74 | -29.7 | -21.5
43 | O=C(CCNC(=O)c1cnccn1)NC1CCCc2c1[nH]c1ccc(Cl)cc21 (stereo not drawn) | -11.5 | -7.97 | -1.41 | -18.8 | 3.46
44 | COc1ccc2cc(C3CN(C(=O)CNC(=O)C(C)C)CCO3)ccc2c1 (stereo not drawn) | -0.97 | 1.54 | 1.61 | -9.11 | 15.3
45 | CCOC(=O)N1c2ccc(C(F)(F)F)cc2[C@@H](N(Cc2cc(C(F)(F)F)cc(C(F)(F)F)c2)C(=O)OC)C[C@H]1CC | – | -16.6 | – | -23.9 | -5.01
46 | COc1cc(C)cc(C(C(=O)O)N2CCN(c3cnccn3)CC2)c1OC (stereo not drawn) | -2.67 | -4.53 | -1.4 | -11.1 | -4.98
47 | COc1ccc(OC)c(CCN2C(=O)c3cc4ccccc4n3CC2(C)C(=O)NCc2ccccc2OC)c1 (stereo not drawn) | 5.2 | 0 | 6.06 | 7.33 | 0.532
48 | C=CCNC(=O)c1ccc2c(=O)[nH]c3c(C(=O)NC(C)C)sc(=S)n3c2c1 | -7.99 | 4.78 | 4.48 | -11.9 | -24.5
49 | CC(NC(=O)Cn1c(=O)oc2cc(S(=O)(=O)NC3CCCC3)ccc21)c1ccccc1 (stereo not drawn) | -1.71 | 0.508 | -4.17 | -7.55 | -6.36
50 | O=C(NCCN1CCCC1)c1cc2n(n1)CCCN(Cc1ccc(Cl)cc1)C2=O | -4.38 | 0 | -12.2 | -2.95 | 0.239
51 | O=S(=O)(N[C@H]1CO[C@H]2[C@@H]1OC[C@H]2O)c1ccc(Cl)cc1 | -3.02 | -0.791 | -0.09 | -5.52 | -2.18
52 | Cc1ccc(NS(=O)(=O)c2ccc3c(c2)[C@H]2C=CC[C@H]2[C@@H](c2cccc(Cl)c2)N3)cc1C | -16.4 | -3.31 | -9.93 | -17.1 | -7.4
53 | COc1ccccc1N1CCN(S(=O)(=O)c2ccc3c(c2)n(C)c(=O)n3C)CC1 | 1.68 | 0.406 | 9.14 | 14.7 | 2.25
54 | C=C1[C@H]2CC[C@H](C(=O)O)[C@@]23CC[C@H](C3)C1(C)C | -9.93 | -22.7 | -2.52 | -38.7 | -5.6
55 | O=C(Cn1nc2n(CCc3ccccc3)c(=O)c3ccccc3n2c1=O)Nc1ccc(F)cc1F | -1.6 | 2.07 | 3.6 | -5.66 | -1.04
56 | Cc1[nH]c2ccccc2c1CC(=O)NCc1ccccc1-n1cncn1 | -0.564 | 4.73 | 2.92 | -4.43 | 10.3
57 | CN(C)C[C@@H]1CN(C2CCOCC2)C[C@H]1NC(=O)C1CC=CCC1 (stereo partly drawn) | -7.01 | -7.46 | -4.79 | -8.11 | -3.56
58 | Cc1cnc(C(=O)NC2CC(c3nnc(CO)n3C3CC3)C2)[nH]1 (stereo not drawn) | -7.52 | -8.8 | -3.48 | -11 | 1.68
59 | O=C(c1cccc(F)c1F)N1CCCC2(CCNCC2)CC1 | 0.98 | 0.618 | -2.76 | 5.15 | -1.31
